Test results: PubChem BioAssay (NCI)
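Cultured in 96-well plates, cells were exposed to test compound for 48 hours across five concentrations. Abbreviation: GI50, concentration required for 50% inhibition of growth. TGI: concentration producing complete growth inhibition.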

Each compound was assayed on NCI-H322M lung (assay: NCI anticancer screen, dose series, 48 h).

How did the GI50 turn out when `CC[C@]12C=CCN3CC[C@@]4(c5ccc(OC)cc5N(C)[C@H]4[C@@](O)(C(=O)OC)[C@@H]1OC(=O)CCCC[P+](C1CCCCC1)(C1CCCCC1)C1CCCCC1)[C@@H]32` was run?
Its GI50 is 5.3 µM.

And the TGI?
Its TGI is 18.4 µM.

With `COc1ccc2[nH]c(O)c(N=NC(=O)COc3ccc(NC(=O)Nc4ccc(Cl)cc4)cc3)c2c1` as the compound, how does the GI50 read?
The GI50 was 10.3 µM.

And the TGI?
Its TGI is 30.8 µM.

How did the GI50 turn out when `O=C(CSc1nnc(-c2ccc(-c3nc4ccc(Cl)cc4[nH]3)cc2)o1)Nc1ccccc1` was run?
Its GI50 is 3.98 µM.

And the TGI?
Its TGI is 18.7 µM.

Which results are given for `COc1ccc(-c2cc(C(=O)N=Nc3c(O)[nH]c4ccc(Br)cc34)c3ccccc3n2)cc1`?
GI50: 14.4 µM; TGI: 29.6 µM

For `CCOc1ccc2ncc(C#Cc3cncc(C(=O)Nc4ccc(CN5CCN(C)CC5)c(C(F)(F)F)c4)c3)n2n1`, which GI50 is on record?
Its GI50 is 1.45 µM.

And the TGI?
The TGI was 16.5 µM.

Which results are given for `CCOC(=O)c1ccc(NC(=S)NC(=O)c2ccc(NC(=O)C(C)C)cc2OC)cc1`?
GI50: 22.2 µM; TGI: > 100 µM
